For experiment [1], the target named is PPARg (Homo sapiens) (UniProt P37231). Conditions: 180 nM, no RXRa, PBS pH 7.4, 2% milk, 0.02% Triton X-100, 1 mM DTT, BSA, 0.4 mg/ml salmon testes DNA; double strand, one strand shown.
For experiment [2], the target named is T1, VDR (Homo sapiens) (UniProt P11473).
T1 sequence: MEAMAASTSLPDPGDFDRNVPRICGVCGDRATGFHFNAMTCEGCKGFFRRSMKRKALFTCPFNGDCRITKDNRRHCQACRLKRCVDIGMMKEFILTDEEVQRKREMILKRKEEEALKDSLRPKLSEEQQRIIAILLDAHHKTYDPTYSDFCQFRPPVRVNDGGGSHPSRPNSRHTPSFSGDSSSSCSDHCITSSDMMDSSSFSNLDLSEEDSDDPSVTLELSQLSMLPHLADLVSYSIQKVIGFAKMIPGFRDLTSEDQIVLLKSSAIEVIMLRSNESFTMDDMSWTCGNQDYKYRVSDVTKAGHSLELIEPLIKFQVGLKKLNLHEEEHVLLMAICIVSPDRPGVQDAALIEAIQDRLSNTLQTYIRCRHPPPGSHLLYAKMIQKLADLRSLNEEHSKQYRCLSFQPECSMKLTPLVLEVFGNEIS
Conditions: 270 nM, no RXRa, PBS pH 7.4, 2% milk, 0.02% Triton X-100, 1 mM DTT, BSA, 0.4 mg/ml salmon testes DNA; double strand, one strand shown.

Experiment [3] addresses T2, RARa (Homo sapiens) (UniProt P10276).
T2 sequence: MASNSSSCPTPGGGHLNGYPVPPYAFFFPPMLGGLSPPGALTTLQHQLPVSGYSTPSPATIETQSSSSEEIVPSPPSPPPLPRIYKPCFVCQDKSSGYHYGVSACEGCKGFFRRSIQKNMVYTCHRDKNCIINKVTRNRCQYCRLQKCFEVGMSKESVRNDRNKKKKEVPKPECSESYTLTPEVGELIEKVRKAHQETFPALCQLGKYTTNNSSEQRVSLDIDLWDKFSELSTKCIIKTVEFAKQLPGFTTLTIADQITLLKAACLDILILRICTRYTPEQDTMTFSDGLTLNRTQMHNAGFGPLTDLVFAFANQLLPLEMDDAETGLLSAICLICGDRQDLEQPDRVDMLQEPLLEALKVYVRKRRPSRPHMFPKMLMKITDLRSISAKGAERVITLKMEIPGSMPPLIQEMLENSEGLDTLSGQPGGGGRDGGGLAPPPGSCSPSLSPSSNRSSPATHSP
Conditions: 270 nM, no RXRa, PBS pH 7.4, 2% milk, 0.02% Triton X-100, 1 mM DTT, BSA, 0.4 mg/ml salmon testes DNA; double strand, one strand shown.

Experiment [4] addresses T3, PXR (Homo sapiens) (UniProt O75469).
T3 sequence: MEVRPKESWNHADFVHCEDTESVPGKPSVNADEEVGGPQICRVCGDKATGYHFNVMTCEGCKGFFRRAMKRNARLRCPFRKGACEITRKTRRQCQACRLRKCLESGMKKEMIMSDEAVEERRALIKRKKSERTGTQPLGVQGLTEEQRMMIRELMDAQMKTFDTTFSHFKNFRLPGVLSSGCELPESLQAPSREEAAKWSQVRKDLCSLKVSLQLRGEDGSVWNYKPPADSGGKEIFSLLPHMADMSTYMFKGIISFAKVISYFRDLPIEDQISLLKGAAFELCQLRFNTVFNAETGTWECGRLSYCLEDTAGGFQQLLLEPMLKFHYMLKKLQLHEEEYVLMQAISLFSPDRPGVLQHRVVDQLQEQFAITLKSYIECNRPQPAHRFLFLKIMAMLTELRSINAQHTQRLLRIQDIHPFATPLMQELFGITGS
Conditions: 270 nM, no RXRa, PBS pH 7.4, 2% milk, 0.02% Triton X-100, 1 mM DTT, BSA, 0.4 mg/ml salmon testes DNA; double strand, one strand shown.

Experiment [5] addresses T4, RARb (Homo sapiens) (UniProt P10826).
T4 sequence: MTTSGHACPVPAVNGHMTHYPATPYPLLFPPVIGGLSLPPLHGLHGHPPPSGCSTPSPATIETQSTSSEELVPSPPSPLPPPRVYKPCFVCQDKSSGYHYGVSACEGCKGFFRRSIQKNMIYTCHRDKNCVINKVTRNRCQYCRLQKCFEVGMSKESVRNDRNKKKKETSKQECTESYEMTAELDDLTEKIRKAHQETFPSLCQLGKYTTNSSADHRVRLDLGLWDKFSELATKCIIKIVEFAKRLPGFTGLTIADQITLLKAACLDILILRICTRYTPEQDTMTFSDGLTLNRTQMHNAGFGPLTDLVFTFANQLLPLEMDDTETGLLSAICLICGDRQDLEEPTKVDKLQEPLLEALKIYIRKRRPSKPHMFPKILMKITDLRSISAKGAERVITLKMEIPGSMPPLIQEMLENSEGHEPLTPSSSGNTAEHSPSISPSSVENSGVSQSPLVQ
Conditions: 270 nM, no RXRa, PBS pH 7.4, 2% milk, 0.02% Triton X-100, 1 mM DTT, BSA, 0.4 mg/ml salmon testes DNA; double strand, one strand shown.

The test system of experiment [6] is PPARg-DBDmut:RXRa PPARg:K132A + PPARg:R137A. Conditions: 270 nM : 90 nM RXRa, PBS pH 7.4, 2% milk, 0.02% Triton X-100, 1 mM DTT, BSA, 0.4 mg/ml salmon testes DNA; double strand, one strand shown.
Experiment [7] has as its target T5, RARg (Homo sapiens) (UniProt P13631).
T5 sequence: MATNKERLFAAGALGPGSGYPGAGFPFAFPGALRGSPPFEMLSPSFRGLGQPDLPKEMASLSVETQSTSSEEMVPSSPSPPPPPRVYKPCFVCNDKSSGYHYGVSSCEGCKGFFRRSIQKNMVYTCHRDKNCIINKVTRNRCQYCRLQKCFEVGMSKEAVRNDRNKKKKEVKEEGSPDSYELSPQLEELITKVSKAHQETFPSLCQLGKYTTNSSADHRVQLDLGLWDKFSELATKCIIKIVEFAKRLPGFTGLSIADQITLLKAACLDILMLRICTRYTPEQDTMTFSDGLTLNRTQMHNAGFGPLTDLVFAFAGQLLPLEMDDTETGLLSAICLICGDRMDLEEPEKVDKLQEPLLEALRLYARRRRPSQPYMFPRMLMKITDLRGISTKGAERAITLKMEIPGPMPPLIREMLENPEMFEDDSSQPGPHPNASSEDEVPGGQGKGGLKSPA
Conditions: 270 nM, no RXRa, PBS pH 7.4, 2% milk, 0.02% Triton X-100, 1 mM DTT, BSA, 0.4 mg/ml salmon testes DNA; double strand, one strand shown.

The list shows a part of the results. For some of these results: At the low end of the ranking, values are background and their order means little.

Sequence of UniProt P37231 (P37231 29-505): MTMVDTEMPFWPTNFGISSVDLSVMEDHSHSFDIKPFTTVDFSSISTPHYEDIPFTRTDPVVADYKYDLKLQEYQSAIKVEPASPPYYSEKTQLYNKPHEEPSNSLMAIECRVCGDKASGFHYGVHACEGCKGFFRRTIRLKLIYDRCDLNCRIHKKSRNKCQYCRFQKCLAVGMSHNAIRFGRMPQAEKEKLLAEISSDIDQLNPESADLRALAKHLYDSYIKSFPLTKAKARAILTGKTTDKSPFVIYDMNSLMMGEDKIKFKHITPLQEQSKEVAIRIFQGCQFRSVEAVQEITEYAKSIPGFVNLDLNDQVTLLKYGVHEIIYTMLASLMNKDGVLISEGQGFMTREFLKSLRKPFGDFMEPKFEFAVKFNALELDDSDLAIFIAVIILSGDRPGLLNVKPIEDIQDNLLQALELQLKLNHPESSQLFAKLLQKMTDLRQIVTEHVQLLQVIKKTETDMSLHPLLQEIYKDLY

As for “GCCTGGCTGGGCATGGTGGCTCATGCCTGTAATCCCGCGATTGACAGCGTAGAATGAAGG”, the binding signal (PBM z-score against 500 random probes) in experiment [1] is -1.11; in experiment [2], -0.56.
“GCTGGTGGAGCTTATCTTGAAGTAGTTTCCTAAGAGGCGATTGACAGCGTAGAATGAAGG” gave a binding signal (PBM z-score against 500 random probes) in experiment [3] of 0.31.
Turning to “GCAGCCATATGCAAATGAGTACATCCTGTGTGATTCGCGATTGACAGCGTAGAATGAAGG”, in experiment [4], the binding signal (PBM z-score against 500 random probes) stood at 0.04.
Consider “GCTGATGGGCTTCAAGTTGCTAACCCAGGAAATGGAGCGATTGACAGCGTAGAATGAAGG”, for which the binding signal (PBM z-score against 500 random probes) in experiment [1] is 0.11; in experiment [4] it was -0.15; in experiment [2], -0.21.
Consider “GCAGGGATGAATAGATCGAAGTTACTGCCCATTCAAGCGATTGACAGCGTAGAATGAAGG”, for which the binding signal (PBM z-score against 500 random probes) in experiment [1] worked out at 0.15; in experiment [4] it was 0.27.
In turn, “GCCAAGATAACCAGCTTATCTATCAGTTGGAGCAGAGCGATTGACAGCGTAGAATGAAGG” came in with a binding signal (PBM z-score against 500 random probes) in experiment [3] of 0.4.
As for “GCGGTTGAATGCCCAGATAGTACACACACCAAGCTTGCGATTGACAGCGTAGAATGAAGG”, the binding signal (PBM z-score against 500 random probes) in experiment [4] stood at 0.37.
The sequence “GCTGAGGTGCTTCAGAGATGTCCACTCCTGCTGGCTGCGATTGACAGCGTAGAATGAAGG” registered a binding signal (PBM z-score against 500 random probes) in experiment [4] of -0.88.
In experiment [3], “GCATCAGGTCTGCACCTGCAGATGGCGAGGGTTGGCGCGATTGACAGCGTAGAATGAAGG” showed a binding signal (PBM z-score against 500 random probes) of -0.46.
Take “GCTTCCAGAATCAGACAATCACTGGGCTTGAACCAGGCGATTGACAGCGTAGAATGAAGG”: the binding signal (PBM z-score against 500 random probes) is -0.24 in experiment [4] and -0.43 in experiment [5].
In experiment [4], “GCTAGATATGAGTCTGGCTTGCTGCTATCTACTTCAGCGATTGACAGCGTAGAATGAAGG” showed a binding signal (PBM z-score against 500 random probes) of -0.29.
Regarding “GCAGGTCAAAGTCAGCCAGCTAGTAGGTCAGGGAGCGCGATTGACAGCGTAGAATGAAGG”, in experiment [6], the binding signal (PBM z-score against 500 random probes) was found to be 0.91.
Turning to “GCAAGAGAGAGACACAATGGCTAAAGAAGGAAGAGTGCGATTGACAGCGTAGAATGAAGG”, the values for the binding signal (PBM z-score against 500 random probes) in experiment [1] and in experiment [5] were 0.01 and 0.39, respectively.
In the case of “GCGAGATGCAGCCAACCTGTAGAGATCCTGTGGAGAGCGATTGACAGCGTAGAATGAAGG”, the binding signal (PBM z-score against 500 random probes) in experiment [4] was -0.52.
For “GCCACACCCAGCCTTAGGCATAGTGGCTCATGGTAGGCGATTGACAGCGTAGAATGAAGG”, the binding signal (PBM z-score against 500 random probes) was -0.58 in experiment [1] and -0.92 in experiment [5].
Take “GCACACAGAGAAACTCTTGCCAGTAGCAGTAGTACCGCGATTGACAGCGTAGAATGAAGG”: the binding signal (PBM z-score against 500 random probes) in experiment [4] was -0.07; in experiment [2], -0.26.
Turning to “GCACACTGACAATAGCATACACCTTTCCAGAATGCGGCGATTGACAGCGTAGAATGAAGG”, the binding signal (PBM z-score against 500 random probes) in experiment [4] came to 0.22.
In experiment [3], “GCGAAACTGCTGCAAAGGCCTACTGAAGCCTGACTGGCGATTGACAGCGTAGAATGAAGG” had a binding signal (PBM z-score against 500 random probes) of -0.75.
For the sequence “GCGGTGTCGTGTGCCTGTGATCCCAGCTACGCAGGCGCGATTGACAGCGTAGAATGAAGG”, the binding signal (PBM z-score against 500 random probes) in experiment [4] is -0.19; in experiment [5] it was -0.1; in experiment [2], -0.1.
As to “GCCTCAGGCTGAGTTGTGGTAGTGTAATCATAGCTCGCGATTGACAGCGTAGAATGAAGG”, the binding signal (PBM z-score against 500 random probes) in experiment [4] is -0.4; in experiment [3] it was -0.24; in experiment [5], -0.59.
Take “GCTCACCGTGTTAGCCAGGATGGTCTCAATCTCCTGGCGATTGACAGCGTAGAATGAAGG”: the binding signal (PBM z-score against 500 random probes) in experiment [3] is -0.8.
“GCACAGCAAAGAGGCCAGCATGGCTAGAGCAGATCAGCGATTGACAGCGTAGAATGAAGG” returned a binding signal (PBM z-score against 500 random probes) in experiment [5] of -0.76.
“GCCCAAGATCTTGCCACTGCACTCCAGCCTGGATGAGCGATTGACAGCGTAGAATGAAGG” had a binding signal (PBM z-score against 500 random probes) in experiment [5] of 0.21.
For the sequence “GCTGCTGACTTGCTGGTTAGAGGGAACACATTCCCAGCGATTGACAGCGTAGAATGAAGG”, in experiment [7], the binding signal (PBM z-score against 500 random probes) is -0.18.
“GCGCAGTGGGTCACTTGAGACCAGCCTGGGCAACGCGCGATTGACAGCGTAGAATGAAGG”: the binding signal (PBM z-score against 500 random probes) in experiment [2] was -0.92.

The values above are taken from paper PMC6555819.
